± gives the standard deviation of the averaged measurements. This is one part of the list.
test system: PfAP2-G AP2 domain (GST-tagged); assay: gcPBM binding intensity (ln(normalized median fluorescence intensity)); higher = stronger DNA binding
Outline: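 Binding intensity is defined as the maximum Masliner-normalised natural-log median intensity across replicate spots for either probe orientation. It was measured on an Agilent 4 × 180k array of primer-extended double-stranded 36-bp intergenic genomic probes and negative controls, to which GST-tagged P. falciparum DNA-binding domains made in E. coli were applied for 1 h in 1× PBS with 1% milk, 0.2 mg/ml BSA, 0.5% salmon testes DNA and 0.03% Triton X-100. Detection was by Alexa488 anti-GST antibody and scanning at 488 nm.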

Row | Sequence | gcPBM binding intensity (ln)
1 | CGTATGTATATATATATACACACTTCTGTGATACGA [CACACA_site1949] | 10 ± 0.17
2 | TATCTACTTAAATAAAATAAAAATAATAAATAAAAA [TGCATGCA_negctrl_site312] | 9.77 ± 0.18
3 | ATAAAACAAAGACACACACACATACACAAAAAAAAA [CACACA_site7752] | 10.4 ± 0.47
4 | AATAATCATGATCATAGTACGTATGAATACAAAAAA [XGTACX_site265] | 11 ± 0.62
5 | ATATATATATGTATATGTACTCATTCTTCTGTGTTT [XGTACX_site5014] | 11.2 ± 0.96
6 | TAAGTCAAAACTTTTTTTTCTAAATTTCCATAATTA [GTGCAC_negctrl_site29] | 9.61 ± 0.11
7 | ATATACATTCTATATACATGCATACTTCATTTTGTG [TGCATGCA_site966] | 10.24 ± 0.014
8 | TACATAATAATAAGGCGTACATAAAAATTAAAAATT [XGTACX_site8769] | 11.4 ± 1
9 | AAAACGATTTTTTGCACACACATAATAAGCAGAACA [CACACA_site3871] | 10.3 ± 0.18
10 | AAATGAATTTAACAATGTACACATATATTATAAATA [XGTACX_site1449] | 11.3 ± 0.67
11 | ATTTAATTTTCCAAATGTACTTATATTTTTATGAAA [XGTACX_site6144] | 11.2 ± 0.92
12 | TGAAATGATCTTTAGTTGCACTTAAAAATATATATA | 9.98 ± 0.22
13 | CAAAAAGATAAGGTGTGTACGTATTATAATTTTAAA [XGTACX_site531] | 11.5 ± 0.99
14 | AAAAAAAAAAAAAACACACACATATATATAATATAT [CACACA_site3172] | 9.88 ± 0.16
15 | AAGTATAGTCTTACATATATATATATATATATATAT [GTGCAC_negctrl_site280] | 10.1 ± 0.67
16 | GGTATATAAAAATATTGTACTTAAAAAAATATGTAT [XGTACX_site6253] | 11.4 ± 0.99
17 | TATTTCACTTTTTGTCTGCACTAAAATTTTATGGTA | 10.4 ± 0.23
18 | TAGATACATAAACACACACACACATACATATATACA [CACACA_site9139] | 10.1 ± 0.16
19 | TAAGAAATAAATAGTACACACATAGACACCCACCGA [CACACA_site1516] | 11.5 ± 0.93
20 | AGTATACTCAAACACACACACACAAAAAAAAAAAAA [CACACA_site4398] | 10.1 ± 0.42
21 | GTAATATTAATATAATGTACAAAATGAAACATATAT [XGTACX_site6219] | 10.7 ± 0.35
22 | CAGTTTAATTTACATAGTACATAATATTTTAATTTT [XGTACX_site1793] | 10.6 ± 0.33

Row | Sequence | gcPBM binding intensity (ln)
23 | ACAATATTATTATTTAACCATACACAATTATATGTC [XGTACX_negctrl_site378] | 9.94 ± 0.14
24 | TATATTTAATTACATGAACACACATTATATATTTTT [CACACA_site8969] | 9.845 ± 0.064
25 | TGTAGTATCAATTTTTGTACATAACACATATGTATA [XGTACX_site613] | 11 ± 0.5
26 | ATATATATATATATATGTACATATTATTCTCATTGT [XGTACX_site6259] | 11 ± 0.56
27 | ATGTTCTATAAATATGAACACACGACATATTATTTA [CACACA_site1799] | 9.97 ± 0.014
28 | AAAATATAAATATATTTGAACATGGATCAAATGTAA [GTGCAC_negctrl_site626] | 9.975 ± 0.021
29 | ATACATACATACATACGTACATATGTATATATATAT [XGTACX_site8498] | 11.3 ± 0.81
30 | TATTCATTCTATAAAACACACAAATATTTTTGTATC [CACACA_site666] | 9.72 ± 0.16
31 | AAAACAAACACATTTACACACATAAATAAATCAATT [CACACA_site4122] | 10 ± 0.23
32 | TTTATTTTTCCATATGCACACACACCGTATATATAA [CACACA_site8293] | 10.3 ± 0.16
33 | GTATATGAATGTTCATGTACATAATAAAATATATAA [XGTACX_site250] | 11 ± 0.56
34 | AAATTAAAATATAATACACACATAAAAAAAAAATCA [CACACA_site5918] | 9.92 ± 0.014
35 | ATAAAATATAAAAACGCACACAATTATAAGGGTGTA [CACACA_site177] | 10.02 ± 0.042
36 | ATATATATATATAAAGTGCAAAAATGAAAGTAAGAC [GTGCAC_site9850] | 10.3 ± 0.25
37 | CACGAAAATTTGTAGAGTACATATATAATTAATATA [XGTACX_site3808] | 11.2 ± 0.69
38 | ATATATATATATATATGTACATATTGTATTATTCAC [XGTACX_site6511] | 11.2 ± 0.69
39 | ATTAAAAAAAAGCTCATCGAAATGTCTTATATAAAT [CACACA_negctrl_site912] | 9.76 ± 0.16
40 | AAACAATTTAGACATACACACAAAAATAATATTATA [CACACA_site384] | 10.1 ± 0.12
41 | CAATTAAACAATTAAACATGCAAAATGATATAATAA [TGCATGCA_site240] | 9.71 ± 0.12
42 | AAAAAAAAATAGAAATGTACAAATTGTAATAATTCC [XGTACX_site6182] | 10.4 ± 0.19
43 | ATATATATATATATTTGTACATAATATATATATGCA [XGTACX_site1795] | 10.9 ± 0.67
44 | GAGCATTACACATATACACACATATATATAAACATA [CACACA_site5515] | 10.1 ± 0.15
